The target in the test is human BAX P168G in HCT116 BAX KO cells (human) (UniProt Q07812). Kind of test: SEC; cytosolic fraction of HCT116 BAX KO cells reconstituted with BAX WT, P168G or E75K, untreated; Superdex 200 10/300 GL in IBc buffer, 4 °C; fractions blotted for BAX. (In general: In gel filtration, larger molecules generally elute earlier.)

In general, stoichiometry N refers to the number of molecules, sites or subunits per partner or assembly.

Turning to “human BAX P168G in HCT116 BAX KO cells (a stretch of the chain, sequence left out) (natural protein; other documents disagree on this pair)”, the stoichiometry N was determined as 2.
